Laboratory results reported in PubChem BioAssay AID485364 (National Center for Advancing Translational Sciences (NCATS), 2010).
Hit rate of the full screen: of about 360,000 compounds, about 11,000 (3.1%) were called active. The inconclusive results got no clear call from the source; some entries with a clear call stand among them for comparison. The call rests on the fitted dose curve; in most records, active means well fitted inhibition curve with a large enough effect; inconclusive means small, poorly fitted or top-dose-only effect; inactive means no such curve, though single readings can be large or run the other way. No potency is given beside an inconclusive call; the fits are too rough.
Further: nearly all actives have a fitted effect of over 60% in size.
On the % scale 0 is the no-effect control and ±100 the full control effect; potency means the concentration at half of the fitted maximal effect; tags describe the fitted curve by direction and shape.

These molecules were tested against Schistosoma mansoni thioredoxin glutathione reductase (TGR) (UniProt Q962Y6) (assay: qHTS Assay for the Inhibitors of Schistosoma Mansoni Peroxiredoxins). Settings: purified TGR, DTNB reduction, TNB absorbance 405 nm; activity change, negative = inhibition: at 114 µM (top of the series) unless noted.
Outline: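 Kinetic colorimetric format: TGR-catalysed, NADPH-driven DTNB reduction monitored via TNB absorbance. Enzyme dispensed at 20 nM; compound exposure 15 min at room temperature before reaction start.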
With `CC1C/C(=N/O)C(C)CN1` (stereo unspecified) the Potency was inconclusive [inhibitor, single point]. `CC(=O)Oc1ccc(OC(C)=O)c(S(=O)(=O)c2ccc(C)c(C)c2)c1` was tested, and the Potency was inconclusive [inhibitor, full curve, poor fit]. For `CCCCOc1ccc(C(=O)NCCc2ccccc2)cc1`, the “activity change, negative = inhibition” value was inactive: -0.744%. For `CN(c1ccccc1)S(=O)(=O)c1ccc2c(c1)oc(=O)n2C`, the Potency was inconclusive [inhibitor, single point]. With `Cn1c(=O)c2c(-c3ccc(C(C)(C)C)cc3)n(CC3CCCO3)cc2n(C)c1=O` (stereo unspecified) the Potency was inconclusive [inhibitor, partial curve]. With `COCc1ccc([C@@H]2C[C@H]3CN(Cc4cccnc4)C(=O)[C@]34CCCN24)o1` the Potency was active: 44.7 µM. `COc1cccc(NS(=O)(=O)c2cc3c4c(c2)C(C)C(=O)N4CCC3)c1` (stereo unspecified) was tested, and the Potency was inconclusive [inhibitor, partial curve]. For `CCc1ccc(NC(=O)c2c(C(=O)Nc3ccccc3)sc3nc(C)cc(=O)n23)cc1`, the Potency was inconclusive [inhibitor, partial curve]. For `COc1ccc(S(=O)(=O)N2CCN(C(=S)NC3CCCCC3)CC2)cc1`, the “activity change, negative = inhibition” value was inactive: 8.72%. `C=CCn1c(C)cc(C(=O)CN2C(=O)c3ccccc3S2(=O)=O)c1C` was tested, and the “activity change, negative = inhibition” value was inactive: -10.4%. For `Cc1ccc(C(=O)CSc2n[nH]c(-c3ccco3)n2)cc1C`, the Potency was inconclusive [inhibitor, full curve]. For `CN(c1ccccc1)S(=O)(=O)c1ccc(C(=O)Nc2ncccc2O)cc1`, the Potency was inconclusive [inhibitor, partial curve, poor fit]. For `CC(=O)Nc1ccc(C(=O)c2ccccc2)cc1`, the “activity change, negative = inhibition” value was inactive: -2.05%. In the case of `CC(C)COc1ccc(C(=O)OCCN2CCOCC2)c(O)c1`, the Potency was inconclusive [inhibitor, full curve, poor fit]. With `O=C(COC(=O)c1cnc(Cl)c(Cl)c1)NCc1ccco1` the “activity change, negative = inhibition” value was inactive: 7.2%. With `CCn1cc(C2Nc3ccccc3C(=O)N2O)c(C)n1` (stereo unspecified) the Potency was inconclusive [inhibitor, single point]. `CC(=O)Nc1ccc(S(=O)(=O)Nc2cc(C)cn(Cc3ccc(C)cc3)c2=O)cc1` was tested, and the Potency was inconclusive [inhibitor, partial curve]. With `Cc1ccc(C2CC(=O)NC(SCc3ccccc3)=C2C#N)o1` (stereo unspecified) the Potency was inconclusive [inhibitor, partial curve]. In the case of `O=C(NC(NC(=S)Nc1ccc(Cl)cc1)C(Cl)(Cl)Cl)c1ccco1` (stereo unspecified), the Potency was inconclusive [inhibitor, partial curve]. `Cc1ccc(/C=C2/C(=O)NC(=O)N(Cc3ccc(F)cc3)C2=O)o1` was tested, and the Potency was active: 20 µM. `CCOC(=O)/C(=C\c1ccc(Cl)cc1)c1nc2sc(C)c(C)c2c(=O)[nH]1` was tested, and the Potency was inconclusive [inhibitor, partial curve]. In the case of `CCc1ccccc1N(c1nc(-c2ccc(OC)c(OC)c2)no1)c1nc(-c2ccc(OC)c(OC)c2)no1`, the “activity change, negative = inhibition” value was inactive: -2.01%. In the case of `COCCCNc1nc(-c2ccc(Cl)cc2)nc2ccccc12`, the “activity change, negative = inhibition” value was inactive: -1.19%. `CN(CCNC(=O)C1CCC(=O)N(Cc2cccc(F)c2)C1)CCc1ccccc1` (stereo unspecified) was tested, and the Potency was inconclusive [inhibitor, full curve, poor fit]. With `CCCc1nc2sc3c(c2c(=O)n1NC(=O)CCCl)CCCC3` the Potency was inconclusive [inhibitor, partial curve]. `CN(Cc1ncc[nH]1)Cc1cn(-c2ccccc2)nc1-c1ccc2c(c1)OCO2` was tested, and the “activity change, negative = inhibition” value was inactive: 7.76%. With `O=[N+]([O-])c1cc(C(F)(F)F)ccc1N1CCCNCC1` the Potency was active: 28.2 µM. In the case of `COc1ccc(-n2c(Cc3cccn3C)nnc2SCC(=O)Nc2ccccc2)cc1`, the Potency was inconclusive [inhibitor, partial curve]. `O=C(Cc1ccc(S(=O)(=O)N2CCOCC2)s1)Nc1cc(C(F)(F)F)cc(C(F)(F)F)c1` was tested, and the “activity change, negative = inhibition” value was inactive: 2.24%. For `CC1CCCN(Cc2ccc(OCc3ccccc3)cc2)C1` (stereo unspecified), the “activity change, negative = inhibition” value was inactive: 0%. With `O=C(c1ccc(CS(=O)(=O)c2ccc(Br)cc2)o1)N1CCN(c2ccccn2)CC1` the Potency was inconclusive [inhibitor, partial curve]. For `O=C(C1=C(O)C(=O)N(Cc2ccco2)C1c1cccs1)c1cccs1` (stereo unspecified), the Potency was inconclusive [inhibitor, partial curve]. In the case of `CSc1nsc(SCc2cnc(C)nc2N)n1`, the Potency was active: 39.8 µM. In the case of `CCC1=Nc2cc(C(=O)NCc3ccco3)ccc2Sc2ccc(Cl)cc21`, the Potency was inconclusive [inhibitor, partial curve]. For `CC(=O)c1ccc(OC(=O)CN2C(=O)c3ccccc3C2=O)cc1`, the Potency was inconclusive [inhibitor, partial curve]. In the case of `O=C1c2ccccc2-c2c1cccc2C(=O)N1CCN(C(=O)c2ccco2)CC1`, the Potency was active: 20 µM. For `CCOC(=O)c1c(C)oc2c1c(CN1CCN(CCO)CC1)c(O)c1ccccc12`, the Potency was active: 0.282 µM. With `CC1CC(C)CN(C(=O)c2ccncc2)C1` (stereo unspecified) the “activity change, negative = inhibition” value was inactive: -4.36%. In the case of `O=c1[nH]c2cc3c(cc2cc1CN(Cc1nnnn1CC1CCCO1)C1CCCCC1)OCO3` (stereo unspecified), the Potency was inconclusive [inhibitor, single point]. With `COc1ccc2[nH]c(C)c(C(=O)CN3CCN(C(=O)c4ccco4)CC3)c2c1` the Potency was inconclusive [inhibitor, partial curve]. For `COc1cccc(-c2sc3ccc(OC)cc3c2-c2ccc(OC)cc2F)c1`, the Potency was inconclusive [inhibitor, partial curve]. In the case of `Cc1cccc(NC(=O)c2ccc(S(=O)(=O)N3CCCCC3)cc2)c1`, the “activity change, negative = inhibition” value was inactive: -20%. With `Cc1nc(SCC(=O)NCc2ccco2)c2c(C)c(C)sc2n1` the Potency was inconclusive [inhibitor, partial curve]. With `CCOC(=O)N1CCC(=NNc2ccnc3cc(Cl)ccc23)CC1` the Potency was inconclusive [inhibitor, partial curve]. In the case of `COc1ccc(-c2cc(OC(=O)c3cccc(Cl)c3)c3c(C)oc(C)c3c(=O)c2)cc1`, the Potency was active: 22.4 µM. In the case of `COc1ccc(C(=O)N/C(=C\c2ccco2)C(=O)NCc2cccnc2)cc1`, the Potency was inconclusive [inhibitor, partial curve].
